This is one part of the list.
Key:
Experiment in all cases: glycan array binding signal (z-score within array); higher = stronger binding
Settings in all cases: glycan notation: IUPAC condensed, linker removed
[1] = target: Neu5Ac(a2-6)Gal(b1-4)GlcNAc(b1-6)GalNAc
Outline: (§1)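 Glycan array data were curated from 3228 arrays in the Consortium for Functional Glycomics database and kept only where the protein sequence was available. Glycan names were converted to IUPAC-condensed notation, and columns mapping to the same glycan were averaged. The binding signal is a within-array Z-score, averaged across arrays of the same protein sequence at different concentrations or buffers and across linkers. Negative Z-scores can be read as non-binding.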

[2] = target: Neu5Ac(a2-6)Gal(b1-4)GlcNAc(b1-6)[Gal(b1-3)GlcNAc(b1-3)]Gal(b1-4)Glc
Outline: as §1

[3] = target: Neu5Ac(a2-6)Gal(b1-4)GlcNAc(b1-6)[Gal(b1-3)]GalNAc
Outline: as §1

[4] = target: Neu5Ac(a2-6)Gal(b1-4)GlcNAc6S
Outline: as §1

Neu5Ac(a2-6)GalNAc = target: Neu5Ac(a2-6)GalNAc
Outline: as §1

[5] = target: Neu5Ac(a2-6)GalNAc(b1-4)GlcNAc
Outline: as §1

[6] = target: Neu5Ac(a2-6)GalNAc(b1-4)GlcNAc6S
Outline: as §1

[7] = target: Neu5Ac(a2-6)GlcNAc(b1-4)GlcNAc
Outline: as §1

[8] = target: Neu5Ac(a2-6)GlcNAc(b1-4)GlcNAc(b1-4)GlcNAc
Outline: as §1

Neu5Ac(a2-8)Neu5Ac = target: Neu5Ac(a2-8)Neu5Ac
Outline: as §1

[9] = target: Neu5Ac(a2-8)Neu5Ac(a2-3)Gal(b1-3)GalNAc(b1-4)[Neu5Ac(a2-3)]Gal(b1-4)Glc
Outline: as §1

[10] = target: Neu5Ac(a2-8)Neu5Ac(a2-3)Gal(b1-3)GalNAc(b1-4)[Neu5Ac(a2-8)Neu5Ac(a2-3)]Gal(b1-4)Glc
Outline: as §1

[11] = target: Neu5Ac(a2-8)Neu5Ac(a2-3)Gal(b1-4)Glc
Outline: as §1

[12] = target: Neu5Ac(a2-8)Neu5Ac(a2-3)Gal(b1-4)GlcNAc
Outline: as §1

[13] = target: Neu5Ac(a2-8)Neu5Ac(a2-3)[Gal(b1-3)GalNAc(b1-4)]Gal(b1-4)Glc
Outline: as §1

[14] = target: Neu5Ac(a2-8)Neu5Ac(a2-3)[GalNAc(b1-4)]Gal(b1-4)Glc
Outline: as §1

[15] = target: Neu5Ac(a2-8)Neu5Ac(a2-8)Neu5Ac
Outline: as §1

[16] = target: Neu5Ac(a2-8)Neu5Ac(a2-8)Neu5Ac(a2-3)Gal(b1-4)Glc
Outline: as §1

[17] = target: Neu5Ac(a2-8)Neu5Ac(a2-8)Neu5Ac(a2-3)[Gal(b1-3)GalNAc(b1-4)]Gal(b1-4)Glc
Outline: as §1

[18] = target: Neu5Ac(a2-8)Neu5Ac(a2-8)Neu5Ac(a2-3)[GalNAc(b1-4)]Gal(b1-4)Glc
Outline: as §1

[19] = target: Neu5Ac(a2-8)Neu5Ac(a2-8)Neu5Ac(a2-8)Neu5Ac(a2-3)[GalNAc(b1-4)]Gal(b1-4)Glc
Outline: as §1

[20] = target: Neu5Ac(a2-8)Neu5Gc(a2-3)Gal(b1-4)GlcNAc
Outline: as §1

[21] = target: Neu5Ac(b2-6)Gal(b1-4)GlcNAc
Outline: as §1

Neu5Ac(b2-6)GalNAc = target: Neu5Ac(b2-6)GalNAc
Outline: as §1

[22] = target: Neu5Ac9Ac(a2-3)Gal(b1-3)GlcNAc
Outline: as §1

[23] = target: Neu5Ac9Ac(a2-3)Gal(b1-4)GlcNAc
Outline: as §1

[24] = target: Neu5Ac9Ac(a2-6)Gal(b1-4)GlcNAc
Outline: as §1

[25] = target: Neu5Gc(a2-3)Gal(b1-3)GlcNAc
Outline: as §1

[26] = target: Neu5Gc(a2-3)Gal(b1-3)[Fuc(a1-4)]GlcNAc
Outline: as §1

Neu5Gc(a2-3)Gal(b1-4)Glc = target: Neu5Gc(a2-3)Gal(b1-4)Glc
Outline: as §1

[27] = target: Neu5Gc(a2-3)Gal(b1-4)GlcNAc
Outline: as §1

[28] = target: Neu5Gc(a2-3)Gal(b1-4)GlcNAc(b1-3)Gal(b1-4)GlcNAc(b1-2)Man(a1-3)[Neu5Gc(a2-3)Gal(b1-4)GlcNAc(b1-3)Gal(b1-4)GlcNAc(b1-2)Man(a1-6)]Man(b1-4)GlcNAc(b1-4)GlcNAc
Outline: as §1

[29] = target: Neu5Gc(a2-3)Gal(b1-4)[Fuc(a1-3)]GlcNAc
Outline: as §1

[30] = target: Neu5Gc(a2-6)Gal(b1-4)GlcNAc
Outline: as §1

Neu5Gc(a2-6)GalNAc = target: Neu5Gc(a2-6)GalNAc
Outline: as §1

[31] = target: Neu5Gc(a2-8)Neu5Ac(a2-3)Gal(b1-4)GlcNAc
Outline: as §1

[32] = target: Neu5Gc(a2-8)Neu5Gc(a2-3)Gal(b1-4)GlcNAc
Outline: as §1

[33] = target: Neu5Gc(a2-8)Neu5Gc(a2-3)Gal(b1-4)GlcNAc(b1-3)Gal(b1-4)GlcNAc
Outline: as §1

B1: PX14375C-bth-509-28-509 (Bacteroides thetaiotaomicron) (protein)
chain: RSPQGQFTEDDNPNALVNGKIYNVYTMMRSFDITAGTPAIAIHYLRSEDSEKGSIPSDGSDVAEMYDDFLYTPTNGLLGSYWGKNYAIIYQCNDILDAIAEKETAGQTETEDIINKGEASFFRAYCYFNLVRAFGEVPLVTYKINDASEANIPKTTADKIYEQIDTDLKTAEESLPETWSTEYTGRLTWGAARSLHARTYMMRSDWDNMYKASTDVINKGLYNLKTPYNEIFTDDGENSGGSIFELQCTATAALPQSDVIGSQFCEVQGVRGAGQWDLGWGWHMATQLMADAYETGDPRKNATLLYFRKTDDEPITPENTNEPYGESPISPAMGAYFNKKAYTDPALRKEYTNKGFWVNIRLIRYSDVVLMAAEAANEKNIPGEAVDYLEMVRARARGTNTNILPKITTNDQGELREAIRHERRVELGLEPDRFYDLVRWGIASEVLHAAGKVNYQDKNALLPLPQSEIDKSKGVLVQNPDY
glycan array binding signal (z-score) [1]: -0.184 | glycan array binding signal (z-score) [2]: -0.117 | glycan array binding signal (z-score) [3]: -0.168 | glycan array binding signal (z-score) [4]: -0.292 | glycan array binding signal (z-score) (Neu5Ac(a2-6)GalNAc): -0.377 | glycan array binding signal (z-score) [5]: -0.389 | glycan array binding signal (z-score) [6]: -0.322 | glycan array binding signal (z-score) [7]: -0.42 | glycan array binding signal (z-score) [8]: -0.356 | glycan array binding signal (z-score) (Neu5Ac(a2-8)Neu5Ac): 4.99 | glycan array binding signal (z-score) [9]: -0.132 | glycan array binding signal (z-score) [10]: -0.305 | glycan array binding signal (z-score) [11]: -0.278 | glycan array binding signal (z-score) [12]: -0.08 | glycan array binding signal (z-score) [13]: -0.376 | glycan array binding signal (z-score) [14]: -0.197 | glycan array binding signal (z-score) [15]: -0.37 | glycan array binding signal (z-score) [16]: -0.502 | glycan array binding signal (z-score) [17]: -0.213 | glycan array binding signal (z-score) [18]: -0.314 | glycan array binding signal (z-score) [19]: 0.139 | glycan array binding signal (z-score) [20]: 5.56 | glycan array binding signal (z-score) [21]: 0.233 | glycan array binding signal (z-score) (Neu5Ac(b2-6)GalNAc): -0.269 | glycan array binding signal (z-score) [22]: -0.47 | glycan array binding signal (z-score) [23]: -0.093 | glycan array binding signal (z-score) [24]: -0.236 | glycan array binding signal (z-score) [25]: -0.256 | glycan array binding signal (z-score) [26]: -0.166 | glycan array binding signal (z-score) (Neu5Gc(a2-3)Gal(b1-4)Glc): -0.075 | glycan array binding signal (z-score) [27]: -0.215 | glycan array binding signal (z-score) [28]: 2.42 | glycan array binding signal (z-score) [29]: -0.511 | glycan array binding signal (z-score) [30]: -0.332 | glycan array binding signal (z-score) (Neu5Gc(a2-6)GalNAc): -0.21 | glycan array binding signal (z-score) [31]: -0.167 | glycan array binding signal (z-score) [32]: -0.338 | glycan array binding signal (z-score) [33]: -0.272
